According to the supplement of paper PMC10369915:
This is one part of the list. No stated cut-off is given here; in the data, active = 3.2 or more and inactive = the rest. The signal is at background level for most entries.

Each binder was assayed against SHP2 C-SH2 domain E139D (assay: enrichment score (SH2-bound / input frequency) (ratio); bacterial display of known human phosphotyrosine sites (pTyr-Var adds point mutants) read by sequencing; higher = stronger binding; tyrosines were phosphorylated by kinases first). Conditions: peptide library: pTyr-Var.
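Further: displayed peptides selected on beads carrying the immobilized SH2 domain, with library peptides lacking any tyrosine serving as negative controls.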

Enrichment score, inactive:
CEAVEYLESKQ [BTK_Y511_M509V] 0.895
QGLRLYRTHLA [BTK_Y617_P619T] 1.79
MQMEEYRGRVE [BTNL2_Y91_W94R] 0.525
RCKSHYAAFSV [C1QTNF1_Y145] 3.04
VSKGGYFSVNL [C3orf33_Y164] 1.19
VNKGGYFSVNL [C3orf33_Y164_S160N] 1.2
KLSCSYSHLSA [C4BPA_Y470_W473L] 0.912
AGVDRYSLGTS [C5orf42_Y1451_P1446A] 0.656
LTTEVYFPSIK [C5orf64_Y60_A57T] 1.7
NKYTTYLPRLP [C9orf24_Y126] 0.962
NKFTTYLPWLP [C9orf24_Y126_R129W_YF] 1.7
MRTMGYMPTEM [CABP5_Y62] 0.949
GAPATYEGDAR [CACNA1A_Y1013] 0.404
GAPATYKGDAR [CACNA1A_Y1013_E1014K] 0.461
SREALYNETDP [CACNA1A_Y794_M797T] 0.589
GNHISYYQSDG [CACNA1C_Y1757_V1755I] 0.757
VHYLVYHHHHH [CACNA1H_Y519_H516Y] 2.93
KTNVSYCGALD [CACNB4_Y103] 1.04
KTNVSYFGALD [CACNB4_Y103_C104F] 0.884

What follows are binders tested against SHP2 C-SH2 domain wild-type in the same assay as above. Conditions: peptide library: pTyr-Var.

Enrichment score, inactive:
CEAVEYLESKQ [BTK_Y511_M509V] 1.05
QGLRLYRTHLA [BTK_Y617_P619T] 1.27
MQMEEYRGRVE [BTNL2_Y91_W94R] 0.581
RCKSHYAAFSV [C1QTNF1_Y145] 3.07
VSKGGYFSVNL [C3orf33_Y164] 1.36
VNKGGYFSVNL [C3orf33_Y164_S160N] 1.13
KLSCSYSHLSA [C4BPA_Y470_W473L] 1.25
AGVDRYSLGTS [C5orf42_Y1451_P1446A] 0.506
LTTEVYFPSIK [C5orf64_Y60_A57T] 0.997
NKYTTYLPRLP [C9orf24_Y126] 0.855
NKFTTYLPWLP [C9orf24_Y126_R129W_YF] 1.58
MRTMGYMPTEM [CABP5_Y62] 0.684
GAPATYEGDAR [CACNA1A_Y1013] 0.456
GAPATYKGDAR [CACNA1A_Y1013_E1014K] 0.496
SREALYNETDP [CACNA1A_Y794_M797T] 0.552
GNHISYYQSDG [CACNA1C_Y1757_V1755I] 0.411
VHYLVYHHHHH [CACNA1H_Y519_H516Y] 3.13
KTNVSYCGALD [CACNB4_Y103] 0.842
KTNVSYFGALD [CACNB4_Y103_C104F] 0.853

Each binder was assayed against SHP2 N-SH2 domain L43F in the same assay as above. Conditions: peptide library: pTyr-Var.

Enrichment score, inactive:
CEAVEYLESKQ [BTK_Y511_M509V] 0.883
QGLRLYRTHLA [BTK_Y617_P619T] 2.01
MQMEEYRGRVE [BTNL2_Y91_W94R] 0.725
RCKSHYAAFSV [C1QTNF1_Y145] 3.03
VSKGGYFSVNL [C3orf33_Y164] 1.01
VNKGGYFSVNL [C3orf33_Y164_S160N] 1.26
KLSCSYSHLSA [C4BPA_Y470_W473L] 0.96
AGVDRYSLGTS [C5orf42_Y1451_P1446A] 0.583
LTTEVYFPSIK [C5orf64_Y60_A57T] 0.958
NKYTTYLPRLP [C9orf24_Y126] 0.922
NKFTTYLPWLP [C9orf24_Y126_R129W_YF] 1.52
MRTMGYMPTEM [CABP5_Y62] 0.727
GAPATYEGDAR [CACNA1A_Y1013] 0.371
GAPATYKGDAR [CACNA1A_Y1013_E1014K] 0.389
SREALYNETDP [CACNA1A_Y794_M797T] 0.674
GNHISYYQSDG [CACNA1C_Y1757_V1755I] 0.639
KTNVSYCGALD [CACNB4_Y103] 0.787
KTNVSYFGALD [CACNB4_Y103_C104F] 0.803

Enrichment score, active:
VHYLVYHHHHH [CACNA1H_Y519_H516Y] 3.51

These binders were tested against SHP2 N-SH2 domain T42A in the same assay as above. Conditions: peptide library: pTyr-Var.

Enrichment score, inactive:
CEAVEYLESKQ [BTK_Y511_M509V] 0.7
QGLRLYRTHLA [BTK_Y617_P619T] 1.49
MQMEEYRGRVE [BTNL2_Y91_W94R] 0.582
RCKSHYAAFSV [C1QTNF1_Y145] 2.71
VSKGGYFSVNL [C3orf33_Y164] 1.1
VNKGGYFSVNL [C3orf33_Y164_S160N] 0.99
KLSCSYSHLSA [C4BPA_Y470_W473L] 1.1
AGVDRYSLGTS [C5orf42_Y1451_P1446A] 0.516
LTTEVYFPSIK [C5orf64_Y60_A57T] 1.36
NKYTTYLPRLP [C9orf24_Y126] 0.792
NKFTTYLPWLP [C9orf24_Y126_R129W_YF] 1.51
MRTMGYMPTEM [CABP5_Y62] 0.695
GAPATYEGDAR [CACNA1A_Y1013] 0.38
GAPATYKGDAR [CACNA1A_Y1013_E1014K] 0.453
SREALYNETDP [CACNA1A_Y794_M797T] 0.557
GNHISYYQSDG [CACNA1C_Y1757_V1755I] 0.512
VHYLVYHHHHH [CACNA1H_Y519_H516Y] 2.15
KTNVSYCGALD [CACNB4_Y103] 0.797
KTNVSYFGALD [CACNB4_Y103_C104F] 0.703

These binders were tested against SHP2 N-SH2 domain T52S in the same assay as above. Conditions: peptide library: pTyr-Var.

Enrichment score, inactive:
CEAVEYLESKQ [BTK_Y511_M509V] 1.03
QGLRLYRTHLA [BTK_Y617_P619T] 2.17
MQMEEYRGRVE [BTNL2_Y91_W94R] 0.65
RCKSHYAAFSV [C1QTNF1_Y145] 2.98
VSKGGYFSVNL [C3orf33_Y164] 1.07
VNKGGYFSVNL [C3orf33_Y164_S160N] 0.941
KLSCSYSHLSA [C4BPA_Y470_W473L] 0.88
AGVDRYSLGTS [C5orf42_Y1451_P1446A] 0.556
LTTEVYFPSIK [C5orf64_Y60_A57T] 1.12
NKYTTYLPRLP [C9orf24_Y126] 0.76
NKFTTYLPWLP [C9orf24_Y126_R129W_YF] 1.74
MRTMGYMPTEM [CABP5_Y62] 0.752
GAPATYEGDAR [CACNA1A_Y1013] 0.506
GAPATYKGDAR [CACNA1A_Y1013_E1014K] 0.377
SREALYNETDP [CACNA1A_Y794_M797T] 0.737
GNHISYYQSDG [CACNA1C_Y1757_V1755I] 0.675
VHYLVYHHHHH [CACNA1H_Y519_H516Y] 2.3
KTNVSYCGALD [CACNB4_Y103] 0.728
KTNVSYFGALD [CACNB4_Y103_C104F] 0.968

These binders were tested against SHP2 N-SH2 domain wild-type in the same assay as above. Conditions: peptide library: pTyr-Var.

Enrichment score, inactive:
CEAVEYLESKQ [BTK_Y511_M509V] 0.989
QGLRLYRTHLA [BTK_Y617_P619T] 1.67
MQMEEYRGRVE [BTNL2_Y91_W94R] 1.36
RCKSHYAAFSV [C1QTNF1_Y145] 2.13
VSKGGYFSVNL [C3orf33_Y164] 0.976
VNKGGYFSVNL [C3orf33_Y164_S160N] 1.05
KLSCSYSHLSA [C4BPA_Y470_W473L] 1.58
AGVDRYSLGTS [C5orf42_Y1451_P1446A] 0.736
LTTEVYFPSIK [C5orf64_Y60_A57T] 1.1
NKYTTYLPRLP [C9orf24_Y126] 0.963
NKFTTYLPWLP [C9orf24_Y126_R129W_YF] 1.74
MRTMGYMPTEM [CABP5_Y62] 0.839
GAPATYEGDAR [CACNA1A_Y1013] 0.501
GAPATYKGDAR [CACNA1A_Y1013_E1014K] 0.559
SREALYNETDP [CACNA1A_Y794_M797T] 0.713
GNHISYYQSDG [CACNA1C_Y1757_V1755I] 0.538
VHYLVYHHHHH [CACNA1H_Y519_H516Y] 3
KTNVSYCGALD [CACNB4_Y103] 0.943
KTNVSYFGALD [CACNB4_Y103_C104F] 0.734
